# The full ranking holds about 33,000 sequences; the median of “E-score (-0.5 to 0.5)” is about -0.032, and the highest 2% start at about 0.36. The list shows a part of the results.
# Molecular target: T1, Sko1 (UniProt Q02100)
# T1 sequence: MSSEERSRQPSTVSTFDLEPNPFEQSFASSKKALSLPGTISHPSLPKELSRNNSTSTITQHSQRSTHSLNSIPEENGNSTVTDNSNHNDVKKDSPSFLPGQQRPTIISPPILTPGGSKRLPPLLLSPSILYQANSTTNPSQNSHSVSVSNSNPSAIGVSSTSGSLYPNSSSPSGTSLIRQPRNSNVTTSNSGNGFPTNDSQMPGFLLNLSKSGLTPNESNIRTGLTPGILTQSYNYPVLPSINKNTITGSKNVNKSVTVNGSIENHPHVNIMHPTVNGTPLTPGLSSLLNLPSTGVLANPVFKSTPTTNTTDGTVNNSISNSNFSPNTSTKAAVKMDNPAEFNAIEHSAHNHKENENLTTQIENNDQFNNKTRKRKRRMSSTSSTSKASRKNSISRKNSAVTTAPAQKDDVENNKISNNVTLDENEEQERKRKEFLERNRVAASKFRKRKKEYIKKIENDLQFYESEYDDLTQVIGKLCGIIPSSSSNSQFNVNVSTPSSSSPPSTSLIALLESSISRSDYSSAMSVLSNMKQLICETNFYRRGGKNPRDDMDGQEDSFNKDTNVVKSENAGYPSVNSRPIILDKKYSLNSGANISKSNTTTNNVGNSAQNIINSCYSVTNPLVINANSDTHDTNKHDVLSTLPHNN
# Assay: PBM E-score (8-mer binding enrichment) (E-score (-0.5 to 0.5)); higher = stronger / more preferred TF binding; most listed sequences are background and not binding sites
# Conditions: protein concentration: 200 nM; construct: GST-full length
# Description: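 Universal 'all 10-mer' protein binding microarrays (Agilent AMADID 015681) probed with GST-tagged S. cerevisiae TFs (full-length or DBD) made by in vitro transcription/translation (PURExpress), about 100-200 nM. Bound TF was detected with fluorescent anti-GST. Each ungapped 8-mer (which stands for itself and its reverse complement) is scored by the PBM enrichment score (E-score), a modified Wilcoxon-Mann-Whitney statistic from -0.5 to +0.5, computed with the Universal PBM Analysis Suite. Scale: above 0.35 generally sequence-specific binding.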
row,Sequence,PBM E-score
1,AAAGTGAG,0.126
2,AAGCAACG,0.107
3,ATGACTGA,0.0911
4,GAACCGCA,0.0871
5,AACCTAGA,-0.0495
6,AATGCTAC,0.105
7,CTAGTGGA,-0.299
8,GTCTCTTA,-0.0168
9,CGCATTCA,0.232
10,CCGTTCTA,-0.0829
11,CGCATCAG,-0.0566
12,CCGCAACA,0.165
13,ACGGGTCG,-0.0427
14,ATATCACC,0.214
15,CGCGCCAA,0.0639
16,TGAAGGAA,-0.0645
17,ATTTAATG,0.292
18,ACGAAGCT,0.0464
19,AGAGCCGC,-0.172
20,ACATTGGA,0.0753
21,ATGTAGCC,-0.171
22,CCGGTTAC,-0.0312

row,Sequence,PBM E-score
1,ATCAACCA,0.0221
2,CCGAGCCG,-0.288
3,ATGATCAA,0.278
4,GGTCCTAC,-0.129
5,GCTGATCA,-0.0916
6,TATTGAAA,0.18
7,ATTCTTGA,0.126
8,ATTGCCCG,-0.208
9,AGCGCTGA,0.00751
10,CATGGCAG,-0.07
11,GATTCGTA,0.251
12,AACAACCC,-0.0561
13,CTGTCCTA,-0.169
14,AATTCTGG,0.019
15,CATCGAAG,0.00565
16,ATTCGTGC,0.198
17,CGATTGCA,0.0846
18,ACTCTAAG,-0.129
19,CCCCTTAG,-0.341
20,ACTAGTCG,-0.197
21,TGATAGAA,0.0834
22,AATGTTGA,0.13

row,Sequence,PBM E-score
1,GATTCTTA,0.207
2,AAAGGCTT,-0.133
3,AAGTGCTG,0.013
4,CGCTATCC,-0.0434
5,AGGTCTAC,-0.148
6,ACTCATTC,0.169
7,GTATATTA,0.355
8,TCTCCAAA,-0.115
9,GCACTCGA,-0.274
10,ACTTATTA,0.157
11,ACCAGTTC,-0.22
12,CATAAGCG,-0.0292
13,CGAATAGA,-0.0425
14,CCTTGGCG,-0.329
15,GAGCTTAA,-0.101
16,CTTCCACC,-0.0638
17,CCGGTACG,0.0472
18,AGGAGTAA,-0.00289
19,AAGTTGGC,-0.114
20,ATCAGGGA,-0.19
21,GCTGTTCC,-0.212
22,ATGCTATG,0.233

row,Sequence,PBM E-score
1,CCGGAGAA,-0.226
2,ATCTAGTA,0.225
3,GTCCGTAA,0.00251
4,GCCATCCA,-0.213
5,CGTGTGAC,0.336
6,TGCCTTAA,-0.125
7,CTACTACC,-0.15
8,ACACGTAA,0.472
9,GGTTAAAA,0.0589
10,AACCCGCC,-0.0447
11,GGGAGACC,-0.382
12,GTGATGTA,0.397
13,GTACAGAA,0.055
14,CTCACGCC,0.00864
15,CACACTGA,-0.0502
16,GTCGCCCA,-0.101
17,ATATAGGG,-0.0541
18,CTTGTCAC,-0.0926
19,CGTGGGTA,0.0415
20,AGATGTGG,-0.0787

# Source: the supplement of paper PMC3334620
